The values that follow come from publication PMC9640623, “SAMHD1 deacetylation by SIRT1 promotes DNA end resection by facilitating DNA binding at double-strand breaks” (Nature Communications, 2021).

Chains of the proteins cited; added tags and fusions are not shown. Lines headed by an entry give the natural chain unless they say otherwise; changes in a name come on top.
UniProt Q96EB6: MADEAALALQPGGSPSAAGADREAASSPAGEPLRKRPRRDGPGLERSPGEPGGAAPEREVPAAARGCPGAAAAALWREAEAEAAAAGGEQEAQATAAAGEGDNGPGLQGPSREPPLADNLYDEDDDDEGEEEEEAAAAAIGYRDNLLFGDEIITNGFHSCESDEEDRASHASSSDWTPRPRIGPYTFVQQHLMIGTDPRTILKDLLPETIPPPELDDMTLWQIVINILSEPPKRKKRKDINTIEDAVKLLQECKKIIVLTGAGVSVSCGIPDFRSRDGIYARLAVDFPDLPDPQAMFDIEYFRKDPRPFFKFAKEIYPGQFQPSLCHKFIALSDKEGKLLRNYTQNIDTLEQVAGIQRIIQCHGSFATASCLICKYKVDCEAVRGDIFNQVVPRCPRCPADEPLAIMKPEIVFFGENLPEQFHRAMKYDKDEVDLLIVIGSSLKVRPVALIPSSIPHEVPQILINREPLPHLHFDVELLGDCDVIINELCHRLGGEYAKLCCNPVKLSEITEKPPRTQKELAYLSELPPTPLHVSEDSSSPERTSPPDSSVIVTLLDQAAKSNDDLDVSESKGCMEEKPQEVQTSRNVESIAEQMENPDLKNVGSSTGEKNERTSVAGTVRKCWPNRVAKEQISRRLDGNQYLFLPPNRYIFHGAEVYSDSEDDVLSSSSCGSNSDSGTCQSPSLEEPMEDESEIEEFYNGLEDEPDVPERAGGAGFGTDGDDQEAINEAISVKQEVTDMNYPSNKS
UniProt Q9Y3Z3: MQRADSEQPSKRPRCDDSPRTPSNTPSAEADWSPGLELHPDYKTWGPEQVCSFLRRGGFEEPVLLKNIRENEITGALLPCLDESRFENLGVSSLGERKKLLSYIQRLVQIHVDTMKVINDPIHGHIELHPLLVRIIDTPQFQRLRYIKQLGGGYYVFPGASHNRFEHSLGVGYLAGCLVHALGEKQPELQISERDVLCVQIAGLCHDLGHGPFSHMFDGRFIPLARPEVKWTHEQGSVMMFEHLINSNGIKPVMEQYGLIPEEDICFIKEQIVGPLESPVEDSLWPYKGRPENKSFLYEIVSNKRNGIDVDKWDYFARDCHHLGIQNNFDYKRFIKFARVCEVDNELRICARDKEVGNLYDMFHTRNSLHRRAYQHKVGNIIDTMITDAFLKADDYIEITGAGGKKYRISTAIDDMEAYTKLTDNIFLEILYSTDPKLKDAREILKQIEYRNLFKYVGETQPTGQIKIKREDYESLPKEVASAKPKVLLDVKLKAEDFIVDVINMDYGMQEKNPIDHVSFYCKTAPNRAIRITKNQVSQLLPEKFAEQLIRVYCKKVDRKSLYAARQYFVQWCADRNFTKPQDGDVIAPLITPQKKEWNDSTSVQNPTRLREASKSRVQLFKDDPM
UniProt O60934: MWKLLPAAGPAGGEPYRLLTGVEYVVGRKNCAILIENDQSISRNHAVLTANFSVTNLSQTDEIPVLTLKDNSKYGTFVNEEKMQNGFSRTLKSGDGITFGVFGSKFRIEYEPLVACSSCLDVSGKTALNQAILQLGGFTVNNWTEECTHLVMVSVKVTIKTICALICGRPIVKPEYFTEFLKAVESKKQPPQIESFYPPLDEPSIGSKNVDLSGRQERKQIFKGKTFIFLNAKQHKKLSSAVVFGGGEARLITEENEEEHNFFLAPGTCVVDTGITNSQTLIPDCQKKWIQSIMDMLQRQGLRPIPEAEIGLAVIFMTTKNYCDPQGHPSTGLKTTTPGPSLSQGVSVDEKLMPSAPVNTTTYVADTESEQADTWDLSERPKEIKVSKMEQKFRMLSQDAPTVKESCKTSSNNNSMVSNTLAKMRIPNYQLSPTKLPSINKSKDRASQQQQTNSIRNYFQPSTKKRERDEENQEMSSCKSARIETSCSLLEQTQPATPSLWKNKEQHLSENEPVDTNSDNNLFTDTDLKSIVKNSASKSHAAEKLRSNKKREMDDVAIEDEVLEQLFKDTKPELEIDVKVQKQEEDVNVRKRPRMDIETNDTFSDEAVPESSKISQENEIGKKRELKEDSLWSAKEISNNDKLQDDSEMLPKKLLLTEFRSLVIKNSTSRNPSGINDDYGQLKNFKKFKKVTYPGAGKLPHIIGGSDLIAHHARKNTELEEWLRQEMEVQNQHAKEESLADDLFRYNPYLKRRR
UniProt Q92878: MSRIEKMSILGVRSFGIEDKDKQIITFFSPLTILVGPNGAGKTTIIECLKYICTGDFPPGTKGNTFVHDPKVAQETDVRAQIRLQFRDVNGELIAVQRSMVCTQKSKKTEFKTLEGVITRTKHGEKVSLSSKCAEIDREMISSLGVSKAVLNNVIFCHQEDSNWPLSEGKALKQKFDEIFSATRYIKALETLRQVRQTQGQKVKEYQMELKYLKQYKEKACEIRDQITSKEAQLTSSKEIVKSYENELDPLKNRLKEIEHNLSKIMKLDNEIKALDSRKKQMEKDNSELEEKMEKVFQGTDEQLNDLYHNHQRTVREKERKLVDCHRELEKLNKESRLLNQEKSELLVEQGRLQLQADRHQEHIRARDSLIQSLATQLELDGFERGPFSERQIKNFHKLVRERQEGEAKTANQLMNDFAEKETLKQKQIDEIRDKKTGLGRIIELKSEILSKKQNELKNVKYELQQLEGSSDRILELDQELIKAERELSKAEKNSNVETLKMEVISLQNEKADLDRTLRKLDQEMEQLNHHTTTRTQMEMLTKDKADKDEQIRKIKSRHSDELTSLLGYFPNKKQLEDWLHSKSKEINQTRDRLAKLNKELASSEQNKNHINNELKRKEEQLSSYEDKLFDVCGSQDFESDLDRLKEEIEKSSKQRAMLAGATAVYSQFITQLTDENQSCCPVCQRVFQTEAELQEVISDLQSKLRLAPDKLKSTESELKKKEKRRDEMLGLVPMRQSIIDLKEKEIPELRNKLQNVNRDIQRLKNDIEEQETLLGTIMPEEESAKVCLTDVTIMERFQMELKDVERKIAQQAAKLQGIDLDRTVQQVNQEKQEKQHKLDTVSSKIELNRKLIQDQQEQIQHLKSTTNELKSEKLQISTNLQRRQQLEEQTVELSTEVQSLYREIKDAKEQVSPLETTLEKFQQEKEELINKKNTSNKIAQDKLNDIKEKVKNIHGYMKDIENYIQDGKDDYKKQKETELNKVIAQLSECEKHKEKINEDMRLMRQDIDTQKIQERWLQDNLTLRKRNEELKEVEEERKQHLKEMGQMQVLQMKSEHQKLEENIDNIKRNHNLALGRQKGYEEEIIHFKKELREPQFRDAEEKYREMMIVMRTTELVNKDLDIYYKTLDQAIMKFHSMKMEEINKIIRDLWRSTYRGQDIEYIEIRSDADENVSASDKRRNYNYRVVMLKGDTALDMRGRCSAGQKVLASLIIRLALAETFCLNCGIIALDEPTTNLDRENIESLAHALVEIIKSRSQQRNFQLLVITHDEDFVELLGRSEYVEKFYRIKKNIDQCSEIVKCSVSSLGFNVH
UniProt Q8N6T7: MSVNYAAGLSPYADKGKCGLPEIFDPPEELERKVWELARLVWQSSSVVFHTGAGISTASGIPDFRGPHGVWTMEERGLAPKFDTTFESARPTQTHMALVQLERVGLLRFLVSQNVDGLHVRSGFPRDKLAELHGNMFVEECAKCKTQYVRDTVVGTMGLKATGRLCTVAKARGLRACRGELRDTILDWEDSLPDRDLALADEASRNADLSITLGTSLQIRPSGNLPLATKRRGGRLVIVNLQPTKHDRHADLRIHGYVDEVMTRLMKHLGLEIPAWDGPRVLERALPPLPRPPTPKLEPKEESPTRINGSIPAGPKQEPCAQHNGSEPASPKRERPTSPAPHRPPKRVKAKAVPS
UniProt Q9NRC8: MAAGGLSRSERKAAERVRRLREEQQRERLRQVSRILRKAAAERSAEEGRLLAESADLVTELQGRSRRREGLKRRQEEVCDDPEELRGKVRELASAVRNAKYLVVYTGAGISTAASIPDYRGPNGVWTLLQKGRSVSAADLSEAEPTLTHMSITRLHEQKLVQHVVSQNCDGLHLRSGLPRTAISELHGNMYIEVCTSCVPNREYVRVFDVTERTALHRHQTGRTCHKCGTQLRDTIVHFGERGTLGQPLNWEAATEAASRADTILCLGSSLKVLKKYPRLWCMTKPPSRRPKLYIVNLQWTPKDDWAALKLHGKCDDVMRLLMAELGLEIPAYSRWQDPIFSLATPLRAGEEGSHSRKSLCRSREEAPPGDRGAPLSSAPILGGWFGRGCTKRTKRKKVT

The target of assay [1] is SIRT1-FLAG wild-type (human) (UniProt Q96EB6). The assay can be described thus: co-IP; SAMHD1-GFP fragments and SIRT1-FLAG co-expressed, irradiated cells (Supplementary Fig. 5c); which protein was precipitated is not given.
Assay [2] has as its target SAMHD1-GFP wild-type (full-length) (human) (UniProt Q9Y3Z3). The assay can be described thus: co-IP; 293T cells overexpressing SAMHD1-GFP, with or without 10 Gy IR (harvested after 4 h); lysate in CHAPS buffer IP'ed with anti-GFP antibody on protein A/G agarose overnight at 4 °C; blots for co-precipitated proteins of the lysate.
For assay [3], the target named is SAMHD1-GFP K354Q (human) (UniProt Q9Y3Z3). The description is as above.
For assay [4], the target named is SAMHD1-GFP K354R (human) (UniProt Q9Y3Z3). Described as above.
Assay [5] addresses SIRT1-FLAG wild-type (human) (UniProt Q96EB6). The assay can be described thus: co-IP; 293T cells overexpressing SIRT1-FLAG, with or without 10 Gy IR (harvested after 4 h); lysate IP'ed (Anti-Flag M2 affinity beads named in the methods); blot for endogenous SAMHD1.
For assay [6], the target named is endogenous SIRT1 (human (endogenous in 293T)) (UniProt Q96EB6). The assay is described as follows: co-IP; 293T lysates, with or without IR, IP'ed with anti-SAMHD1 or anti-SIRT1 antibodies; blots with anti-SIRT1 and anti-SAMHD1; both proteins endogenous.
The target of assay [7] is SAMHD1-GFP wild-type (full-length) (human) (UniProt Q9Y3Z3). The assay is described as follows: co-IP; 293T cells overexpressing SAMHD1-GFP, with or without 10 Gy IR (harvested after 4 h); lysate in CHAPS buffer IP'ed with anti-GFP antibody on protein A/G agarose overnight at 4 °C; blots for co-precipitated proteins of the lysate. This is another data set of the same source.

Where two headings read alike, the source gives them in different places. Results are given in words; binding and its absence hold for the method and conditions named. In cells and extracts the contact can be indirect. Some results given as binding are weak or reduced against the parent protein; the word gives no strength.

Take “SAMHD1-GFP (1–115) (from UniProt Q9Y3Z3 1-115) (domain or fragment)”: the binding result in assay [1] is listed as “no binding”.

On to “SAMHD1-GFP (115–300) (from UniProt Q9Y3Z3 115-300) (domain or fragment)”, for which the binding entry in assay [1] is “no binding”.

On to “SAMHD1-GFP (300–465) (from UniProt Q9Y3Z3 300-465) (domain or fragment)”, for which the binding entry in assay [1] is recorded as “binds”.

Regarding “endogenous NBS1 (from UniProt O60934 1-754)”, the binding entry in assay [2], in assay [3] and in assay [4] was “binds” in each case.

For the molecule “endogenous RAD50 (from UniProt Q92878 1-1312)”, the binding result in assay [2], in assay [3] and in assay [4] was “binds” throughout.

With “endogenous SAMHD1 (from UniProt Q9Y3Z3 1-626)”, the binding result in assay [5] and in assay [6] was “binds” throughout.

Turning to “endogenous SIRT6 (from UniProt Q8N6T7 1-355) (enzyme)”, the binding entry in assay [2] is given as “no binding”.

As to “endogenous SIRT7 (from UniProt Q9NRC8 1-400) (enzyme)”, in assay [2], the binding entry is given as “no binding”.

B1: endogenous SIRT2 (enzyme, UniProt Q8IXJ6 1-389)
chain: MAEPDPSHPLETQAGKVQEAQDSDSDSEGGAAGGEADMDFLRNLFSQTLSLGSQKERLLDELTLEGVARYMQSERCRRVICLVGAGISTSAGIPDFRSPSTGLYDNLEKYHLPYPEAIFEISYFKKHPEPFFALAKELYPGQFKPTICHYFMRLLKDKGLLLRCYTQNIDTLERIAGLEQEDLVEAHGTFYTSHCVSASCRHEYPLSWMKEKIFSEVTPKCEDCQSLVKPDIVFFGESLPARFFSCMQSDFLKVDLLLVMGTSLQVQPFASLISKAPLSTPRLLINKEKAGQSDPFLGMIMGLGGGMDFDSKKAYRDVAWLGECDQGCLALAELLGWKKELEDLVRREHASIDAQSGAGVPNPSTSASPKKSPPPAKDEARTTEREKPQ
Take B1: in assay [7], the binding result was “no binding”.
